Source: PubChem BioAssay AID720709 (National Center for Advancing Translational Sciences (NCATS), 2013)
Among all 360,000 compounds or so, about 520 (0.14%) were called active. The inconclusive results got no clear call from the source; some entries with a clear call stand among them for comparison. Calls come from the whole dose curve; as a rule, active = well fitted inhibition curve with a large enough effect; inconclusive = small, poorly fitted or top-dose-only effect; inactive = no such curve, though single readings can be large or run the other way. Potencies of inconclusive entries are left out as doubtful fits.
Note: nearly all actives have a fitted effect of over 50% in size.
Potency is the fitted concentration of half-maximal effect; tags give direction and shape of the fitted curve.
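Throughout, for activity change, negative = inhibition: plate controls were vehicle for no effect and positive control for full effect.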

What follows are compounds tested against Rap guanine nucleotide exchange factor 3 (Homo sapiens) (UniProt O95398) (assay: qHTS for Antagonist of cAMP-regulated guanine nucleotide exchange factor 3 (EPAC1): primary screen). Settings: EPAC1 GEF assay, Rap1b-BODIPY-GDP exchange fluorescence; activity change, negative = inhibition: at 115 µM (top of the series).
UniProt O95398, sequence (O95398 whole entry, looked up): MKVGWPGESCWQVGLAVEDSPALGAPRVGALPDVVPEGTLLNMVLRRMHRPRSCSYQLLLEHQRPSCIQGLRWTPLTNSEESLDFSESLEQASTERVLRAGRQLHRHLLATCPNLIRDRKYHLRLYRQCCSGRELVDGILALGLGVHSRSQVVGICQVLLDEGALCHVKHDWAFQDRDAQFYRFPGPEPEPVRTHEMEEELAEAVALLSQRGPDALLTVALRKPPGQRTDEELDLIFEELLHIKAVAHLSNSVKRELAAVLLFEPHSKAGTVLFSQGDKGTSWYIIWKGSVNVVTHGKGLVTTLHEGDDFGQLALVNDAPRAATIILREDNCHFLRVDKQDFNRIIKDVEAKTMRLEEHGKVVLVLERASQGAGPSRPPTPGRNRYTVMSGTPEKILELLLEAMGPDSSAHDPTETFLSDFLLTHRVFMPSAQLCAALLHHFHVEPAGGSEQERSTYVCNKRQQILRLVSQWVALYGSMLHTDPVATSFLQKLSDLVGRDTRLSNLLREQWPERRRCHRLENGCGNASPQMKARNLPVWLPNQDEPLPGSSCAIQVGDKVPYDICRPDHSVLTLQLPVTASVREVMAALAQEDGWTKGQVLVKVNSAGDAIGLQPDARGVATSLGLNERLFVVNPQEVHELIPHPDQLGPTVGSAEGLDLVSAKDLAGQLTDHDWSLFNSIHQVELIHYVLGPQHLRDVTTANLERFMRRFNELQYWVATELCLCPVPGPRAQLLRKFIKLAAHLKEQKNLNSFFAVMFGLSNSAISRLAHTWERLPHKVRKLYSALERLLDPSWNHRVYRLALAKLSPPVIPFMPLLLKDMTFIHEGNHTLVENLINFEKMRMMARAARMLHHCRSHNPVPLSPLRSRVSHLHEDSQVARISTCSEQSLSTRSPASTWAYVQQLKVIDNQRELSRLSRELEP
For `COc1cccc(N(CC(=O)NCCSCc2ccco2)S(=O)(=O)c2ccccc2)c1`, the Potency was inconclusive [inhibitor, partial curve].
With `O=C(c1ccco1)N(CCC(c1ccccc1)c1ccco1)Cc1ccco1` (stereo not drawn) the Potency was inconclusive [inhibitor, partial curve].
In the case of `O=C(Nc1sc2c(c1C(=O)O)CCC2)c1ccccc1`, the Potency is reported as inconclusive [inhibitor, single point].
For `CC(C)N1C(=O)CCC1C(=O)NCc1ccccc1Cl` (stereo not drawn), the Potency was inconclusive [inhibitor, full curve].
`Nc1ccccc1/C=C/c1ccccc1N` was tested, and the Potency was inconclusive [inhibitor, full curve, poor fit].
In the case of `O=c1n(-c2ccc(Br)cc2)cnn1-c1ncccc1[N+](=O)[O-]`, the Potency is reported as inconclusive [inhibitor, full curve, poor fit].
`COc1ccc(C(=O)NC(=S)Nc2nc(C)cc(C)n2)cc1Br` was tested, and the Potency was inconclusive [inhibitor, partial curve].
`CCCCn1c(N)c(Sc2ccc(C)cc2)c(=O)[nH]c1=O` was tested, and the “activity change, negative = inhibition” value was inactive: 8.82%.
`Nc1nnc(CCCCCc2nnc(N)s2)s1` was tested, and the Potency was inconclusive [inhibitor, single point].
In the case of `CCCCC[n+]1ccn(C2=C([O-])c3ccccc3C(=O)/C2=N\S(=O)(=O)c2ccc(Cl)cc2)c1`, the “activity change, negative = inhibition” value is reported as inactive: 2.01%.
For `COc1ccc(S(=O)(=O)N2CCC[C@H]2C(=O)N2CCC[C@H]2C(=O)NCc2ccccc2)cc1C`, the “activity change, negative = inhibition” value was inactive: 20.4%.
With `C=CCN1C(=O)C2(OCCCO2)c2cc(CCCC)ccc21` the Potency was inconclusive [inhibitor, single point].
In the case of `CSc1ccc(C(c2c(C(=O)O)[nH]c3ccccc23)c2c(C(=O)O)[nH]c3ccccc23)cc1`, the Potency is reported as inconclusive [inhibitor, single point].
`CC(=O)Oc1ccc(-c2csc(Nc3ccc(S(N)(=O)=O)cc3)n2)cc1` was tested, and the Potency was inconclusive [inhibitor, full curve, poor fit].
With `COc1ccc(O)c(CN2CCN(C/C=C/c3ccccc3)CC2)c1` the “activity change, negative = inhibition” value was inactive: 2.57%.
With `O=S(=O)(NCC1COc2ccccc2O1)c1ccc2ccccc2c1` (stereo not drawn) the Potency was inconclusive [inhibitor, partial curve].
In the case of `COc1ccc(NC(=O)C2CC3C=CC2C3)c([N+](=O)[O-])c1` (stereo not drawn), the Potency is reported as inconclusive [inhibitor, full curve].
For `Cc1ccc(OCC(=O)NC(=S)Nc2ccc(Br)cn2)cc1C`, the Potency was inconclusive [inhibitor, single point].
With `CS(=O)(=O)N(CC(=O)NCc1ccc2c(c1)OCO2)C1CCCCC1` the Potency was inconclusive [inhibitor, single point].
`CCCCCCCCN1C(=O)[C@H](CC(=O)NCc2ccc(OC)c(OC)c2)C[C@@]2(C(=O)OCC)CCC=C12` was tested, and the “activity change, negative = inhibition” value was inactive: -22.4%.
With `CCCCCCN1C=CC(=C/C=C(\C#N)C(=O)OCC)C=C1` the “activity change, negative = inhibition” value was inactive: -5.54%.
With `CN1CC=C2C(C#N)=C(N)C(C#N)(C#N)[C@H](c3cccc(Cl)c3)C2C1` (stereo partly drawn) the “activity change, negative = inhibition” value was inactive: 18.5%.
In the case of `COc1cc(-c2nnc(SCC(=O)N3c4ccccc4Sc4ccccc43)o2)cc(OC)c1OC`, the Potency is reported as inconclusive [inhibitor, single point].
With `O=C(c1cc2cc(Br)ccc2o1)N1CCCCC1` the “activity change, negative = inhibition” value was inactive: -4.49%.
For `CS(=O)(=O)c1cccc(S(=O)(=O)N2CCN(c3ccccn3)CC2)c1`, the Potency was inconclusive [inhibitor, single point].
With `O=C(O)c1cccc(Nc2ccc([N+](=O)[O-])c3nonc23)c1` the Potency was inconclusive [inhibitor, partial curve].
For `O=c1[nH]c(/C=C/c2cccc3ccccc23)nc2ccccc12`, the “activity change, negative = inhibition” value was inactive: -7.29%.
In the case of `Oc1ccc(N=Nc2ccc3c(c2)OCCO3)c2ncccc12`, the “activity change, negative = inhibition” value is reported as inactive: -11%.
`COc1ccc(NC(=O)c2cc3c(=O)n(C)c4ccccc4c3s2)cc1OC` was tested, and the Potency was inconclusive [inhibitor, single point].
`COC(=O)c1ccc(C)c(NC(=O)CSc2sc3c(O)cc(=O)[nH]c3c2C#N)c1` was tested, and the Potency was inconclusive [inhibitor, partial curve].
With `Cc1noc(C)c1-c1nc(CSc2ccc(Cl)cc2)no1` the Potency was inconclusive [inhibitor, single point].
In the case of `O=C(NCc1ccccc1)C(c1ccc(-c2ccccc2)cc1)n1c(=O)c(-c2ccco2)nc2ccccc21` (stereo not drawn), the Potency is reported as inconclusive [inhibitor, partial curve].
For `C=CCn1c(=NC(=O)c2cccc(N3C(=O)CCC3=O)c2)sc2cccc(OC)c21`, the Potency was inconclusive [inhibitor, partial curve, poor fit].
In the case of `Cc1ccc(-c2nn(-c3cc(Cl)ccc3[N+](=O)[O-])c(=O)c3ccccc23)cc1C`, the Potency is reported as inconclusive [inhibitor, full curve, poor fit].
`CC(=O)Nc1ccc(S(=O)(=O)N2CCC(C(=O)c3ccc(Cl)cc3)CC2)cc1` was tested, and the Potency was inconclusive [inhibitor, full curve, poor fit].
With `CCOC(=O)C(=CNNc1ccccc1)C(=O)OCC` the activity change, negative = inhibition was inconclusive: -33.4% [inhibitor].
With `O=C(NC(=S)Nc1nc2c(s1)CCCC2)c1ccccc1` the “activity change, negative = inhibition” value was inactive: -0.749%.
In the case of `O=C1C=C(Nc2cccnc2)c2ccccc2C1=O`, the Potency is reported as inconclusive [inhibitor, partial curve].
With `O=C(NS(=O)(=O)c1ccc2ccc(S(=O)(=O)NCCSc3ccccc3)cc2c1)c1cccc2ccccc12` the Potency was active: 56.2 µM.
In the case of `CCCn1c(SCC(=O)NCCc2ccccc2)nnc1-c1ccccn1`, the Potency is reported as inconclusive [inhibitor, partial curve].
For `CC(CCC(=O)NN)C1CCC2C3CCC4CC(O)CCC4(C)C3CCC12C` (stereo not drawn), the “activity change, negative = inhibition” value was inactive: -11.4%.
`Cc1ccc(NS(=O)(=O)c2cc([N+](=O)[O-])ccc2NNC(=S)Nc2cccc(Cl)c2)c(C)c1` was tested, and the Potency was active: 50.1 µM.
For `COc1ccc(-c2[nH]ncc2CN2CCN(c3ccccn3)CC2)c(OC)c1`, the Potency was inconclusive [inhibitor, single point].
